Measurements taken from ChEMBL document CHEMBL4888484, “Replenishing the malaria drug discovery pipeline: Screening and hit evaluation of the MMV Hit Generation Library 1 (HGL1) against asexual blood stage Plasmodium falciparum ,using a nano luciferase reporter read-out” (2022).
Among all 150,000 compounds or so, about 540 (0.36%) showed an effect of 50% or more. This is one part of the list.

System: Plasmodium falciparum
Test: Primary screen in NF54 nanoGlo assay, in single point, at 2uM, 72h; a lower Z score goes with more inhibition
Assay type: functional, Erythrocyte
Settings: timepoint 72 hour

| Compound | % Inhibition [%] | Z score |
| --- | --- | --- |
| CC(C)C(=O)N1CC2(CCC2)[C@H]1c1ccccc1 | -9 | 1.58 |
| CN(Cc1ccccc1)c1ccc(-c2ccc(Cl)cc2)nn1 | -17 | 1.97 |
| CCCCc1cn(C2CCN(C(=O)[C@@H]3CCCO3)CC2)nn1 | -6 | 0.73 |
| CCCC(=O)NCc1noc(-c2ccco2)n1 | 5 | -0.68 |
| COc1cccc(-c2n[nH]c(CC(C)C)c2NC(=O)C2CCCC2)c1 | 4 | -0.45 |
| CC(C)(C)N(Cc1ccccn1)C(=O)[C@H]1CCCOC1 | -6 | 0.73 |
| CCOCCCNCc1ccc(C)cc1 | -16 | 2.55 |
| COc1cc(CC2CN(C(=O)c3occc3C)C2)cc(OC)c1 | -6 | 0.81 |
| CCn1cc(CN2CCO[C@@H](CCOC)C2)cc1C#N | -1 | 0.21 |
| CC(C)c1noc(C2CCCCN2C(=O)C(C)n2cncn2)n1 (stereo not given) | -3 | 0.48 |
| CN(C)c1ccc(NC(=O)NC[C@H](O)c2ccco2)cc1Cl | -16 | 1.51 |
| Cc1cc(-c2nc([C@H]3CCOC3)no2)c2ccccc2n1 | 2 | -0.33 |
| O=C1CCN(CC(=O)N2CCC[C@H](C3CCOCC3)C2)C(=O)N1 | -2 | 0.28 |
| c1cn(C2CCCC2)nc1CN1CC2(CCC2)[C@@H]1C1CCOCC1 | 2 | -0.31 |
| COc1ccc(-c2ccc(N3CCCN(C(=O)CN(CC4CC4)C(=O)CC(C)C)CC3)nn2)cc1 | 4 | -0.61 |
| CC(=O)N1C[C@@H](O)C[C@@H]1c1nc(-c2ccc(F)c(CN(C)C)c2)no1 | -22 | 2.34 |
| C[C@H](NC1(CNC(=O)C(C)(C)C#N)CCCC1)c1ccccc1 | -15 | 2.96 |
| Cc1cc(NC(=O)N2CCOC3(CC4CCC3C4)C2)ccn1 (stereo not given) | -3 | 0.54 |
| Cc1ccc(-c2noc3c(NCc4ccc(Cl)cc4)ncnc23)cc1 | -10 | 1.29 |
| C=CCNc1cc(S(=O)(=O)N(C)C)ccc1OCC | 7 | -1.42 |
| Cn1nc(NC(=O)c2cc3n(n2)CCCO3)cc1OC(F)F | 0 | 0.02 |
| Cc1nc2ccccc2n1[C@H]1CCN(C(=O)Cn2ncccc2=O)C1 | 0 | -0.08 |
| COc1cccc(C)c1NC(=O)N1C[C@H]2C[C@@H](C1)[C@@H]1CCCC(=O)N1C2 | 7 | -1.23 |
| CCC1(CC)CN([C@@H]2CCNC(=O)CC2)CCO1 | -6 | 1.18 |
| O=C(NCC1CC1)[C@]1(F)CCCN(S(=O)(=O)c2ccc(F)cc2F)C1 | -4 | 0.35 |
| Cc1ccc(CN2C[C@@H](CO)[C@H](C3CCN(C(=O)C(C)C)CC3)C2)s1 | -8 | 0.98 |
| CCOC(=O)C1(Cc2ccc(Cl)cc2)CCN(Cc2ccccn2)CC1 | -4 | 0.81 |
| COc1ccc(CN2CCO[C@H](C(=O)NC3Cc4ccccc4C3)C2)cc1C | 2 | -0.37 |

| Compound | % Inhibition [%] | Z score |
| --- | --- | --- |
| Cc1ccc(C(=O)Nc2nccnc2C(=O)N2CCC(N3CCCCC3)CC2)cc1 | -5 | 0.75 |
| O=C1C[C@H](NC(=O)c2cccc3ccnn23)c2ccccc2N1 | -6 | 0.77 |
| CCN(CC#N)S(=O)(=O)c1cc(F)c(F)c(F)c1 | 0 | 0.06 |
| O=c1c2nccnc2ncn1C[C@H]1CCc2ccccc2O1 | -1 | 0.13 |
| CC1(C)CN(C(=O)c2cc(O)nc3ccccc23)CCO1 | -8 | 1.45 |
| CCC(C)CN(CC(=O)N1CCc2sccc2C1COc1ccc(Cl)cc1)C(=O)c1cccs1 (stereo not given) | -6 | 0.71 |
| C[C@@H](c1ccon1)N(C)CC(=O)Nc1cnccn1 | -5 | 0.51 |
| COCCN(C)C(=O)NOCc1ccccc1 | 6 | -0.82 |
| COc1ccc(NC2CCOCC2)cc1 | -14 | 1.62 |
| C[C@@H](CC(=O)Nc1nc(C(F)(F)F)cs1)NC(=O)C1CCCC1 | 15 | -1.27 |
| CC[C@@H](CNC(=O)N1CCN(C(=O)c2ccccc2)CC1)N1CCOCC1 | 2 | -0.34 |
| O=C(C[C@H](c1cn(Cc2ccccc2)c2ccccc12)C1CCCCC1)NCc1ccccc1 | -13 | 1.68 |
| O=C(Nc1nc(C2CC2)cs1)[C@@H]1CCCO1 | -11 | 2.08 |
| COC(=O)C1CCN2C(=O)N(c3cc(C)c(OC)cc3C)C(=O)C2C1 (stereo not given) | 5 | -0.97 |
| CCCc1nnc(NC[C@H]2CN(C)CCO2)s1 | -10 | 1.38 |
| O=C(Nc1ccccc1Cl)C(=O)N[C@@H]1C[C@H]2C(=O)NCC(=O)N2C1 | -13 | 1.75 |
| O=C(O)CC[C@@H]1CN(c2nc3ccccc3s2)CC[C@@H]1N1CCOCC1 | -5 | 0.97 |
| c1ccc(CCN2CCC(C3CCOCC3)CC2)nc1 | 2 | -0.2 |
| Cc1nc(CCC(=O)N2CCCS2(=O)=O)oc1-c1ccccc1 | -5 | 1.03 |
| COc1cnc(CN2CCC[C@H](Cc3nc4ccccc4[nH]3)C2)cc1O | -15 | 2.66 |
| Cc1nc(-c2ccsc2)ccc1C(=O)N[C@@H](CC(C)C)c1nc(-c2nnc[nH]2)no1 | 32 | -3.65 |
| CCN(C(=O)c1cnc(COc2ccccc2)nc1O)C1CCCCC1 | -8 | 1.53 |
| CCn1nccc1C(=O)N1CCC2(CCC(=O)N(CCOC)C2)CC1 | -8 | 1.05 |
| C[C@H]1OCC[C@H]1n1nnnc1N1CCCC2(CCCC2)C1 | -7 | 1.25 |
| CCCC(=O)N1CCCC1C(=O)OC(C)c1nc(C)no1 (stereo not given) | 9 | -1.35 |
| CCOc1cc(C(=O)Nc2cc(Cl)ccc2Cl)ccc1OCCOc1ccccc1 | -7 | 1 |
| Cc1cnc(C(=O)N2CCc3[nH]c(-c4cccnc4)nc3C2)cn1 | 7 | -1.33 |
